The other results are listed elsewhere or left out.
How the values were obtained:
Experiment in all cases: glycan array binding signal (z-score within array); higher = stronger binding
Conditions in all cases: glycan notation: IUPAC condensed, linker removed
Gal6S(b1-4)Glc = molecular target: Gal6S(b1-4)Glc
Summary of the method: (§1)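 Glycan array binding is given as a within-array Z-score, which can be read as non-binding when negative. The arrays, 3228 of them, came from the Consortium for Functional Glycomics database and were retained only where the protein sequence was available. Z-scores were averaged across arrays of the same protein sequence at different concentrations or buffers and across linkers.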

Gal6S(b1-4)Glc6S = molecular target: Gal6S(b1-4)Glc6S
Summary of the method: as §1

Gal6S(b1-4)GlcNAc = molecular target: Gal6S(b1-4)GlcNAc
Summary of the method: as §1

Gal6S(b1-4)GlcNAc6S = molecular target: Gal6S(b1-4)GlcNAc6S
Summary of the method: as §1

GalNAc(a1-3)Gal = molecular target: GalNAc(a1-3)Gal
Summary of the method: as §1

GalNAc(a1-3)GalNAc = molecular target: GalNAc(a1-3)GalNAc
Summary of the method: as §1

[1] = molecular target: GalNAc(a1-3)GalNAc(b1-3)Gal(a1-4)Gal(b1-4)Glc
Summary of the method: as §1

[2] = molecular target: GalNAc(a1-3)GalNAc(b1-3)Gal(a1-4)Gal(b1-4)GlcNAc
Summary of the method: as §1

GalNAc(b1-3)Gal = molecular target: GalNAc(b1-3)Gal
Summary of the method: as §1

[3] = molecular target: GalNAc(b1-3)Gal(a1-4)Gal(b1-4)GlcNAc
Summary of the method: as §1

[4] = molecular target: GalNAc(b1-3)Gal(a1-4)Gal(b1-4)GlcNAc(b1-3)Gal(b1-4)Glc
Summary of the method: as §1

[5] = molecular target: GalNAc(b1-3)Gal(a1-6)Gal(b1-4)Glc
Summary of the method: as §1

GalNAc(b1-3)GalNAc = molecular target: GalNAc(b1-3)GalNAc
Summary of the method: as §1

GalNAc(b1-3)GlcNAc = molecular target: GalNAc(b1-3)GlcNAc
Summary of the method: as §1

GalNAc(b1-4)Gal(b1-4)Glc = molecular target: GalNAc(b1-4)Gal(b1-4)Glc
Summary of the method: as §1

GalNAc(b1-4)GlcNAc = molecular target: GalNAc(b1-4)GlcNAc
Summary of the method: as §1

[6] = molecular target: GalNAc(b1-4)GlcNAc(b1-2)Man
Summary of the method: as §1

[7] = molecular target: GalNAc(b1-4)GlcNAc(b1-2)Man(a1-3)[GalNAc(b1-4)GlcNAc(b1-2)Man(a1-6)]Man(b1-4)GlcNAc(b1-4)GlcNAc
Summary of the method: as §1

[8] = molecular target: GalNAc(b1-4)GlcNAc(b1-3)GalNAc(b1-4)GlcNAc
Summary of the method: as §1

GalNAc(b1-4)GlcNAc6S = molecular target: GalNAc(b1-4)GlcNAc6S
Summary of the method: as §1

GalNAc(b1-6)GalNAc = molecular target: GalNAc(b1-6)GalNAc
Summary of the method: as §1

GalNAc3S(b1-4)GlcNAc = molecular target: GalNAc3S(b1-4)GlcNAc
Summary of the method: as §1

GalNAc3S(b1-4)GlcNAc3S = molecular target: GalNAc3S(b1-4)GlcNAc3S
Summary of the method: as §1

[9] = molecular target: GalNAc3S(b1-4)[Fuc(a1-3)]GlcNAc
Summary of the method: as §1

GalNAc4S6S(b1-4)GlcNAc = molecular target: GalNAc4S6S(b1-4)GlcNAc
Summary of the method: as §1

GalNAc6S(b1-4)GlcNAc = molecular target: GalNAc6S(b1-4)GlcNAc
Summary of the method: as §1

Glc(a1-4)Glc = molecular target: Glc(a1-4)Glc
Summary of the method: as §1

[10] = molecular target: Glc(a1-4)Glc(a1-4)Glc(a1-4)Glc
Summary of the method: as §1

Glc(a1-6)Glc(a1-6)Glc = molecular target: Glc(a1-6)Glc(a1-6)Glc
Summary of the method: as §1

[11] = molecular target: Glc(a1-6)Glc(a1-6)Glc(a1-6)Glc
Summary of the method: as §1

Glc(b1-4)Glc = molecular target: Glc(b1-4)Glc
Summary of the method: as §1

Glc(b1-6)Glc = molecular target: Glc(b1-6)Glc
Summary of the method: as §1

GlcA(b1-3)Gal = molecular target: GlcA(b1-3)Gal
Summary of the method: as §1

GlcA(b1-3)GlcNAc = molecular target: GlcA(b1-3)GlcNAc
Summary of the method: as §1

GlcA(b1-6)Gal = molecular target: GlcA(b1-6)Gal
Summary of the method: as §1

[12] = molecular target: GlcA3S(b1-3)Gal(b1-4)GlcNAc(b1-2)Man
Summary of the method: as §1

[13] = molecular target: GlcA3S(b1-3)Gal(b1-4)GlcNAc(b1-3)Gal(b1-4)Glc
Summary of the method: as §1

[14] = molecular target: GlcNAc(a1-3)Gal(b1-4)GlcNAc
Summary of the method: as §1

[15] = molecular target: GlcNAc(a1-4)Gal(b1-3)GlcNAc
Summary of the method: as §1

[16] = molecular target: GlcNAc(a1-4)Gal(b1-4)GalNAc
Summary of the method: as §1

[17] = molecular target: GlcNAc(a1-4)Gal(b1-4)GlcNAc
Summary of the method: as §1

[18] = molecular target: GlcNAc(a1-4)Gal(b1-4)GlcNAc(b1-3)Gal(b1-4)Glc
Summary of the method: as §1

[19] = molecular target: GlcNAc(a1-4)Gal(b1-4)GlcNAc(b1-3)Gal(b1-4)GlcNAc
Summary of the method: as §1

[20] = molecular target: GlcNAc(a1-4)Gal(b1-4)GlcNAc(b1-3)Gal(b1-4)GlcNAc(b1-3)Gal(b1-4)GlcNAc
Summary of the method: as §1

[21] = molecular target: GlcNAc(a1-4)Gal(b1-4)GlcNAc(b1-3)Gal(b1-4)[Fuc(a1-3)]GlcNAc(b1-3)Gal(b1-4)[Fuc(a1-3)]GlcNAc
Summary of the method: as §1

B1: CFEM-PPm (Pichia pastoris), F2QPV1 (protein)
chain: AVATPPACLLACAAEVVKESSDCDALNNIQCICENEGSAIHACLESTCPDGLSSTALQSFEDVCE
- glycan array binding signal (z-score) (Gal6S(b1-4)Glc): 0.035
- glycan array binding signal (z-score) (Gal6S(b1-4)Glc6S): 1.25
- glycan array binding signal (z-score) (Gal6S(b1-4)GlcNAc): 0.142
- glycan array binding signal (z-score) (Gal6S(b1-4)GlcNAc6S): 0.301
- glycan array binding signal (z-score) (GalNAc(a1-3)Gal): -0.297
- glycan array binding signal (z-score) (GalNAc(a1-3)GalNAc): -0.194
- glycan array binding signal (z-score) [1]: -0.31
- glycan array binding signal (z-score) [2]: 0.223
- glycan array binding signal (z-score) (GalNAc(b1-3)Gal): -0.228
- glycan array binding signal (z-score) [3]: -0.22
- glycan array binding signal (z-score) [4]: -0.285
- glycan array binding signal (z-score) [5]: -0.275
- glycan array binding signal (z-score) (GalNAc(b1-3)GalNAc): -0.227
- glycan array binding signal (z-score) (GalNAc(b1-3)GlcNAc): -0.071
- glycan array binding signal (z-score) (GalNAc(b1-4)Gal(b1-4)Glc): -0.165
- glycan array binding signal (z-score) (GalNAc(b1-4)GlcNAc): -0.159
- glycan array binding signal (z-score) [6]: -0.238
- glycan array binding signal (z-score) [7]: 0.149
- glycan array binding signal (z-score) [8]: -0.226
- glycan array binding signal (z-score) (GalNAc(b1-4)GlcNAc6S): -0.05
- glycan array binding signal (z-score) (GalNAc(b1-6)GalNAc): -0.223
- glycan array binding signal (z-score) (GalNAc3S(b1-4)GlcNAc): -0.433
- glycan array binding signal (z-score) (GalNAc3S(b1-4)GlcNAc3S): -0.287
- glycan array binding signal (z-score) [9]: -0.176
- glycan array binding signal (z-score) (GalNAc4S6S(b1-4)GlcNAc): -0.188
- glycan array binding signal (z-score) (GalNAc6S(b1-4)GlcNAc): -0.284
- glycan array binding signal (z-score) (Glc(a1-4)Glc): -0.152
- glycan array binding signal (z-score) [10]: -0.244
- glycan array binding signal (z-score) (Glc(a1-6)Glc(a1-6)Glc): -0.164
- glycan array binding signal (z-score) [11]: -0.404
- glycan array binding signal (z-score) (Glc(b1-4)Glc): 0.294
- glycan array binding signal (z-score) (Glc(b1-6)Glc): -0.146
- glycan array binding signal (z-score) (GlcA(b1-3)Gal): -0.173
- glycan array binding signal (z-score) (GlcA(b1-3)GlcNAc): -0.094
- glycan array binding signal (z-score) (GlcA(b1-6)Gal): 2.41
- glycan array binding signal (z-score) [12]: -0.366
- glycan array binding signal (z-score) [13]: -0.062
- glycan array binding signal (z-score) [14]: -0.343
- glycan array binding signal (z-score) [15]: -0.43
- glycan array binding signal (z-score) [16]: 0.089
- glycan array binding signal (z-score) [17]: -0.205
- glycan array binding signal (z-score) [18]: -0.355
- glycan array binding signal (z-score) [19]: -0.143
- glycan array binding signal (z-score) [20]: -0.247
- glycan array binding signal (z-score) [21]: 0.146

From the supplement of paper PMC8728848
